Results on 43 molecules are retold here after ChEMBL document CHEMBL4888484, “Replenishing the malaria drug discovery pipeline: Screening and hit evaluation of the MMV Hit Generation Library 1 (HGL1) against asexual blood stage Plasmodium falciparum ,using a nano luciferase reporter read-out” (2022).

About 540 (0.36%) of roughly 150,000 compounds showed an effect of 50% or more. Some of the results follow.

The subject of the experiment is Plasmodium falciparum. Description: Primary screen in NF54 nanoGlo assay, in single point, at 2uM, 72h; a lower Z score goes with more inhibition. Type of experiment: functional, Erythrocyte. The conditions noted are these: timepoint 72 hour.
As for `C#CCN1C(=O)[C@]2(CC(=O)Nc3c2cnn3-c2ccc(F)cc2)c2ccccc21`, the “% Inhibition” value is reported as 1% and the Z score is recorded as -0.12.
`O=C(C1CCC1)N1CCOc2ccc(N3CCCC3)cc2C1`: the “% Inhibition” value is given as -2% and the Z score is given as 0.32.
The like results for `CC(C)O[C@@]1(C)C[C@H]1NC(=O)N[C@H]1CC[C@@H](C(=O)N2CCCCC2)C1` were, in that order, -1% and 0.21.
On the same counts, the results for `Cc1ocnc1C(=O)N1CCC[C@H](n2cccn2)C1` are 0% and 0.02.
`Cn1cc(-c2n[nH]cc2C(=O)Nc2ccc3[nH]ccc3c2)cn1`: the “% Inhibition” value is recorded as 7% and the Z score was -0.68.
The like results for `CN1OCC(S(=O)(=O)N2CCN(Cc3ccccc3)CC2)C1c1cccc(F)c1F` (stereo unspecified) were, in that order, -8% and 1.54.
The like results for `CCOC1CCN(C(=O)c2cc(C)ccc2N(C)C(C)C)CC1` were, in that order, 1% and -0.15.
On the same counts, the results for `C[C@H](NC(=O)Cn1cnnn1)C(=O)N1CCC=C(c2ccccc2)C1` are -12% and 1.17.
As for `Cc1nccn1CCC1CCN(C(=O)[C@H]2CCOc3ccccc3C2)CC1`, the “% Inhibition” value was -5% and the Z score was 0.56.
On the same counts, the results for `Cc1cc(C)cc(S(=O)(=O)N2CC(OCc3ccc(F)cc3Cl)C2)c1` are -11% and 2.07.
Regarding `CC[C@H](NC(=O)C(C)(C)C)c1ccc(C)cc1C`, the “% Inhibition” value stood at 6% and the Z score is reported as -0.59.
`Cc1ccc(-c2nc(C)c(Cc3ccccc3)c(N3CCN(S(=O)(=O)c4cc(Cl)ccc4Cl)CC3)n2)cc1`: the “% Inhibition” value came to 10% and the Z score is reported as -1.57.
The like results for `O=C(Cn1cnc2ccccc2c1=O)c1ccc(-c2ccccc2)cc1` were, in that order, 3% and -0.38.
On the same counts, the results for `Cn1cc(CN2CCC(CCCN3CCOCC3)CC2)c(-c2ccncc2)n1` are 5% and -0.62.
As for `CC(C)=C1C2CCC1C1C(=O)N(c3nccs3)C(=O)C21` (stereo unspecified), the “% Inhibition” value is -4% and the Z score is 0.53.
On to `Cc1nc2sc([C@H](c3ccsc3)N3CCCCCC3)c(O)n2n1`, for which the “% Inhibition” value is on record as 7% and the Z score is -0.88.
The like results for `CC1(C)CC(=O)c2cc(NC(=O)Nc3cnn(CCF)c3)ccc2O1` were, in that order, 9% and -1.26.
As to `Cc1cn2c(C(=O)N3[C@@H]4CC[C@H]3CNC(=O)C4)csc2n1`, the “% Inhibition” value is recorded as -2% and the Z score worked out at 0.37.
On the same counts, the results for `CCOc1nc2cc(C(=O)N3CC[C@H](COCCOC)C3)ccc2[nH]1` are -4% and 0.76.
For the molecule `Cc1cc(CN2CCN(C(=O)c3ccc4c(c3)CCCC4)CC2)on1`, the “% Inhibition” value is -3% and the Z score is on record as 0.51.
The like results for `Cc1cnc(CNc2ccccc2C(=O)NC2CC2)s1` were, in that order, -6% and 0.56.
The like results for `O=C1C[C@H](c2ccc(O)cc2)c2c(-c3ccccc3)nn(-c3cccc(F)c3)c2N1` were, in that order, -5% and 0.53.
The like results for `COc1cc(C(=O)NCc2ccc3c(c2)OCO3)on1` were, in that order, 8% and -1.25.
For the molecule `O=C(CN1CCc2nc[nH]c2C12CCC2)NC(C1CC1)C1CC1`, the “% Inhibition” value was -6% and the Z score is 0.96.
Take `C[C@]1(NC(=O)NCc2ccc(Br)cc2)CCOC1`: the “% Inhibition” value is -6% and the Z score worked out at 0.51.
The like results for `CCOC(=O)N1CCC(n2ccnc2-c2sccc2C)CC1` were, in that order, -12% and 1.52.
With `CNS(=O)(=O)N1CC(N2CCN(C(=O)OC(C)(C)C)CC2)C1`, the “% Inhibition” value is listed as -11% and the Z score came out at 2.14.
The like results for `C=CCN=C(NCC(=O)NC1CCCCC1)NCc1ccco1` were, in that order, -7% and 1.09.
As to `C[C@H]1CCc2n[nH]c(C(=O)N(C)CCc3noc(C4CC4)n3)c2C1`, the “% Inhibition” value was determined as 6% and the Z score is -0.88.
On the same counts, the results for `Cc1ccc(N[C@@H]2CC(C)Nc3ccc(C)cc32)cc1` (stereo partly specified) are -10% and 1.23.
On the same counts, the results for `O=C(Nc1cccc(C(F)(F)F)c1)N[C@H]1CO[C@H]2[C@@H]1OC[C@H]2OC(=O)Nc1ccc(Oc2ccccc2)cc1` are 35% and -3.93.
Regarding `CC(C)C(=O)NCCc1csc(C2CCN(C(=O)Nc3cccc(F)c3)CC2)n1`, the “% Inhibition” value was -10% and the Z score is on record as 1.89.
The like results for `Cc1ncsc1CCN(C)Cc1cccc(C(=O)O)n1` were, in that order, -3% and 0.44.
Take `CC(C)N1CCO[C@@H](CC(=O)NCc2ccccc2C(F)(F)F)C1`: the “% Inhibition” value is -16% and the Z score came to 1.75.
`Cc1cc(CNc2nc(CCc3ccccc3)nc3c2cnn3C)n[nH]1`: the “% Inhibition” value was -7% and the Z score was 1.38.
As for `Cc1nc[nH]c1CN1CCNC(=O)[C@@H](CC(C)C)NC(=O)c2cc(F)ccc2OCCn2cc(nn2)CC1`, the “% Inhibition” value is -3% and the Z score was 0.38.
On the same counts, the results for `CCCN(C(=O)c1cccs1)C1CCN(C(=O)C2CC(C)(O)C2)CC1` (stereo unspecified) are -8% and 1.53.
With `CCc1nc(NC2=NC(C)(C)C=C(C)N2)nc2ccccc12`, the “% Inhibition” value was found to be 1% and the Z score is -0.17.
The like results for `NS(=O)(=O)CC1CCCCN1C(=O)CC1CC2CCC1C2` (stereo unspecified) were, in that order, 2% and -0.19.
Consider `O=C1C(CS(=O)(=O)c2ccc(F)cc2)=Nc2cccn21`, for which the “% Inhibition” value was 4% and the Z score is -0.6.
As for `NC(=O)CCNC(=O)c1cn2cc(-c3ccccc3Cl)n(CC3CC3)c(=O)c2n1`, the “% Inhibition” value is reported as -12% and the Z score is given as 2.35.
On the same counts, the results for `O=C(Cn1nc2c3ccc(Cl)cc3ncn2c1=O)NCc1ccc(F)cc1` are -2% and 0.38.
The like results for `Cc1nc(N)nc(C)c1CC(=O)N(C)Cc1csc(-c2ccccc2)n1` were, in that order, 0% and -0.01.

The term % Inhibition denotes the drop in the measured response relative to a control, in per cent.
